# Test results taken from IntAct's records for PubMed 28620713.
# B1: Angiopoietin-1 receptor (Homo sapiens), Q02763 (parent)
# chain: MDSLASLVLCGVSLLLSGTVEGAMDLILINSLPLVSDAETSLTCIASGWRPHEPITIGRDFEALMNQHQDPLEVTQDVTREWAKKVVWKREKASKINGAYFCEGRVRGEAIRIRTMKMRQQASFLPATLTMTVDKGDNVNISFKKVLIKEEDAVIYKNGSFIHSVPRHEVPDILEVHLPHAQPQDAGVYSARYIGGNLFTSAFTRLIVRRCEAQKWGPECNHLCTACMNNGVCHEDTGECICPPGFMGRTCEKACELHTFGRTCKERCSGQEGCKSYVFCLPDPYGCSCATGWKGLQCNEACHPGFYGPDCKLRCSCNNGEMCDRFQGCLCSPGWQGLQCEREGIQRMTPKIVDLPDHIEVNSGKFNPICKASGWPLPTNEEMTLVKPDGTVLHPKDFNHTDHFSVAIFTIHRILPPDSGVWVCSVNTVAGMVEKPFNISVKVLPKPLNAPNVIDTGHNFAVINISSEPYFGDGPIKSKKLLYKPVNHYEAWQHIQVTNEIVTLNYLEPRTEYELCVQLVRRGEGGEGHPGPVRRFTTASIGLPPPRGLNLLPKSQTTLNLTWQPIFPSSEDDFYVEVERRSVQKSDQQNIKVPGNLTSVLLNNLHPREQYVVRARVNTKAQGEWSEDLTAWTLSDILPPQPENIKISNITHSSAVISWTILDGYSISSITIRYKVQGKNEDQHVDVKIKNATITQYQLKGLEPETAYQVDIFAENNIGSSNPAFSHELVTLPESQAPADLGGGKMLLIAILGSAGMTCLTVLLAFLIILQLKRANVQRRMAQAFQNVREEPAVQFNSGTLALNRKVKNNPDPTIYPVLDWNDIKFQDVIGEGNFGQVLKARIKKDGLRMDAAIKRMKEYASKDDHRDFAGELEVLCKLGHHPNIINLLGACEHRGYLYLAIEYAPHGNLLDFLRKSRVLETDPAFAIANSTASTLSSQQLLHFAADVARGMDYLSQKQFIHRDLAARNILVGENYVAKIADFGLSRGQEVYVKKTMGRLPVRWMAIESLNYSVYTTNSDVWSYGVLLWEIVSLGGTPYCGMTCAELYEKLPQGYRLEKPLNCDDEVYDLMRQCWREKPYERPSFAQILVSLNRMLEERKTYVNTTLYEKFTYAGIDCSAEEAA
# partner: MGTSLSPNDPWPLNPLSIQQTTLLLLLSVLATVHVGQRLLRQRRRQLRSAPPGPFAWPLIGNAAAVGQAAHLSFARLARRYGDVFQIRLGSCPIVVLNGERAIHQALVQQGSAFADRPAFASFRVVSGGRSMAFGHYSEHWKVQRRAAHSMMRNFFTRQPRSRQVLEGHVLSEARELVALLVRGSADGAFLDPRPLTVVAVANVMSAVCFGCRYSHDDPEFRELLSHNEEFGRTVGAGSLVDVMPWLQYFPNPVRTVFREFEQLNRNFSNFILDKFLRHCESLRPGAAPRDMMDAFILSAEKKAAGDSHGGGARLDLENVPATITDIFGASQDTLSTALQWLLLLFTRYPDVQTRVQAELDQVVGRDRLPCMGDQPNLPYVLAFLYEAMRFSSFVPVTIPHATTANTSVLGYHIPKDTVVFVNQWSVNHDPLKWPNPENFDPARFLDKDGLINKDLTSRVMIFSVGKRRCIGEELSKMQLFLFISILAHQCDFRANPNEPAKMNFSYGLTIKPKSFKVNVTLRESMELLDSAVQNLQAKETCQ
# Variants of: B1
# Details: with cp1b1_human CYP1B1, Q16678
row,effect of a mutation on the interaction,Variant
1,decreasing interaction strength,I148T

# Variants of: B1
# Details: with cp1b1_human CYP1B1, Q16678
# Remark: another data set of the same source
row,effect of a mutation on the interaction,Variant
1,disrupting interaction strength,I148T

# Variants of: B1
# Details: with cp1b1_human CYP1B1, Q16678
# Remark: another data set of the same source
row,effect of a mutation on the interaction,Variant
1,disrupting interaction strength,Q214P

# Variants of: B1
# Details: with cp1b1_human CYP1B1, Q16678
# Remark: another data set of the same source
row,effect of a mutation on the interaction,Variant
1,disrupting interaction strength,E103D

# Variants of: B1
# Details: with cp1b1_human CYP1B1, Q16678
# Remark: another data set of the same source
row,effect of a mutation on the interaction,Variant
1,with no effect,G743A
